Assay results published in the supplement of paper PMC3334620.
Over roughly 33,000 sequences, “E-score (-0.5 to 0.5)” has its median near -0.017; the highest 2% begin near 0.3. The list shows a part of the results.

The sequences below were run against T1, Sut1 (UniProt P53032) (assay: PBM E-score (8-mer binding enrichment) (E-score (-0.5 to 0.5)); higher = stronger / more preferred TF binding; most listed sequences are background and not binding sites). Conditions: protein concentration: 200 nM; construct: GST-full length.
T1 sequence: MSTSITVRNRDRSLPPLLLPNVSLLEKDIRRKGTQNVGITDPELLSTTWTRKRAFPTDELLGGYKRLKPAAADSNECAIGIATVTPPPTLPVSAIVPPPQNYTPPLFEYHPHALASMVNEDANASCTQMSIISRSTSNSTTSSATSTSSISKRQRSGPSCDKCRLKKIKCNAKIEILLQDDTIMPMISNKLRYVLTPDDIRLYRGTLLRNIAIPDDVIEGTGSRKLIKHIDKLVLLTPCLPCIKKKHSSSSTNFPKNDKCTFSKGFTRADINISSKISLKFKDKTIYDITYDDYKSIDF
Method in brief: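 Detection of bound protein used fluorescent anti-GST, with scans normalised by masliner. The proteins were GST-tagged yeast transcription factors applied at about 100-200 nM to universal all-10-mer Agilent arrays made double-stranded by primer extension. Each ungapped eight-base word, pooled with its reverse complement, was scored with an E-score from the Universal PBM Analysis Suite.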

Sequence | PBM E-score
ATGAGCTG | -0.137
CAAGCAGA | -0.00858
ATAGCGCC | 0.00931
ATTCGCCC | -0.188
ATTAGCTA | 0.0436
CAACCGGC | -0.0694
TGCCCAAA | -0.16
AAGGTGGG | -0.221
AACCTAAC | -0.0256
GGCATTTA | -0.0336
CCAGATAA | -0.0368
CCTGGTGC | -0.273
AAACGGAA | 0.331
GCGGAGGA | -0.161
CCTATGGA | -0.21
CAACTAAC | 0.246
CCAGACGC | -0.301
ACGCGTGG | -0.0644
CTCCTTGA | 0.0461
AGTTGGAC | 0.00213
ACGAGTAT | 0.102
CACCAGGG | -0.385
CATGTTGG | -0.171
GGCAATCA | -0.0204
ACCAAGCT | 0.0897

Sequence | PBM E-score
AAAAAATT | 0.218
AGTCCCAG | -0.199
GGGCCGCA | -0.208
CCGTTAAC | -0.0762
AGATCAAA | 0.0287
CCTGTAGA | -0.0523
GCCATCTA | 0.0194
AGAATAAG | 0.0907
ATACCCTG | -0.137
ACTCCACG | -0.0414
ATAATAAC | 0.0949
CTGAGTAA | -0.00271
CTAAGCCA | -0.271
AAATGAAG | 0.0655
ACAAACCA | -0.0263
ACTGCTGA | -0.215
AACGCGCA | -0.119
CCTCTAGA | -0.0818
GCGAGTAC | -0.155
ATACTTGC | 0.0121
CGTTGAAG | -0.0129
TACGTGGA | -0.0356
CCTTGTCC | -0.0909
AGTCAGCA | -0.0199
ACAGGGGA | -0.306

Sequence | PBM E-score
AGCTTAAT | 0.126
CTCTGCTC | -0.143
ACGTGGGG | -0.227
ATACGAGA | -0.0254
GAATACTC | 0.0774
GACTGGGC | -0.0754
GTCGATGA | 0.00089
CGATCTGC | -0.153
GCGAGGTA | -0.0808
CCGAGGCC | -0.104
ATACTTCC | -0.0104
CAACTGTC | -0.146
CTCCCGGC | -0.00963
AAGTGGAT | -0.039
CGTTGTCA | -0.188
AAACGTCT | 0.0746
AGGTCAGA | -0.231
TTAGTCAA | -0.0484
ATGCTCGG | 0.233
GATCTGTA | 0.0653
GTATCTGA | 0.166
AGGTCATG | -0.103
AGGCTTTG | -0.193
CCGTGACA | -0.0915
CGGGTGGC | -0.147

Sequence | PBM E-score
AACCCGAA | -0.00805
CTACACTC | -0.171
TGCTACCA | -0.0835
TAGCACGA | -0.0597
ACCTCTTG | 0.0509
AACCCTCT | -0.235
AGCCTAGC | -0.125
CCGCGTCA | -0.25
AGACCCGA | 0.0572
ATGGCTGA | -0.161
CGCCGGAC | 0.275
CAATCCTG | -0.0245
CACTCCGG | 0.476
AATCGAAG | 0.088
ATTTGCGG | 0.187
CCGATGCC | 0.11
TAGCGAGA | -0.00859
ACACTTTG | 0.0548
GAATTAGA | 0.103
CGGCCTCA | 0.0675
ACAACTTC | 0.0746
AGCTCGTC | -0.124
TTATGAAA | 0.223
GCTGCAAA | -0.0116
ATTAGTAG | 0.153

Sequence | PBM E-score
GACTATCC | 0.0225
ACACCTCT | -0.253
CAGAGACA | -0.111
CTCCCATC | 0.00972
AACAACTT | 0.205
GCCACGGA | 0.258
CTCACCCA | -0.0448
CCGGGTAC | -0.0553
CCGCAAAA | 0.166
ATTAGACC | -0.183
CCGATTCA | -0.0219
CGGGCCCA | -0.109
AGGACCCC | -0.122
GTGGGAAA | -0.0448
CAACGACC | 0.00753
CTCATGTA | 0.0709
GCAACGAC | -0.0725
AATCGAAA | 0.078
AAAGCGGG | -0.0823
CGTGACAC | 0.0262
TATAGAGA | 0.0343
CGCGACTC | 0.16
CCATTTCA | -0.0416
AGCAGATG | -0.286
AGGTTGAT | -0.0931

Sequence | PBM E-score
ATACCAGC | -0.19
CGATTACG | 0.0209
ATATCGAC | 0.104
CGTATTCA | 0.113
GACCTACC | 0.0736
ATTTGAAG | 0.0461
CAAGAGTA | 0.014
CCGACTCA | 0.0266
AGTTTGTA | 0.164
CGATCGGA | 0.246
GAGACCAC | -0.182
CGCGGGGC | -0.106
GCTAGCAA | 0.00518
AGAAGAAA | 0.222
AATATAGC | 0.0924
GAGTTCGA | 0.183
AATCGGGG | 0.027
GCTCTCGA | -0.251
ACATAGGA | -0.0566
ACTAGAGC | -0.203
CAGCCGCC | -0.0276
GAGGTCCC | -0.162
ATATTACC | 0.185
TACTAGTA | 0.219
AATTATCG | 0.244

Sequence | PBM E-score
TGCGCACA | -0.133
ACTCTTCG | -0.0971
GCCCTAAA | -0.167
GCCCCTTA | -0.276
ACTAACAT | 0.187
GAGTTTAC | 0.157
ACTCCAGT | -0.0384
CTACTGTC | -0.187
ACCAAACG | -0.189
CGACTTAG | -0.108
AACGGCGT | -0.0613
AGTACGAG | 0.156
GCTAACTA | 0.165
AAGGCGTA | -0.0416
CGGTTCGC | -0.0464
CCAAATGG | -0.112
GAGGATCA | -0.09
CGAGCAGC | -0.0999
TGCGGCCA | -0.115
AATTTAGT | 0.268
AGATGGAA | -0.125
GTGGTTGA | 0.0583
